conditions: dark, 40° C.
Procedure: The irradiated solution was subsequently allowed to sit in a temperature control cell holder in the dark at 40° C. for 1 min before the absorption spectrum of the solution at 40° C. was recorded. The regeneration of each pyridones was monitored by recording change in its λmax as a function of time.
The thermal decomposition of the endoperoxide adducts were expected to follow a first order reaction kinetics. Thus, the integrated rate law is expressed using equations (2) and (3): 1st order; [Endo]t=[Endo]0e^−kt (2) ln [Endo]t−kt=+ln [Endo]0 (3)
The progress of Endoperoxide release reaction was monitored by the increase of the pyridone absorption, thus the concentrations of the endoperoxide at various reaction times can be calculated by equations (4) and (5). [Endo]t=[Endo]0−[Pyridone]t (4) [Pyridone]t=A(pyridone)t/εpyridone (5)

SMILES	Half Life Ln (2)/k
COC(=O)CN1C(=O)C2C=CC1OO2 (stereo not drawn) [ENDOPEROXIDE 201A]	Half Life ENDOPEROXIDE 201A Ln (2)/k 17329 s 289 min 4.8 hrs
CC1=CC2OOC1N(CC(C)C)C2=O (stereo not drawn) [ENDOPEROXIDE 401A]	Half Life ENDOPEROXIDE 401A Ln (2)/k 11552 s 193 min 3.2 hrs
CC(C)CCN1C(=O)C2(C)C=CC1OO2 (stereo not drawn) [ENDOPEROXIDE 301B]	Half Life ENDOPEROXIDE 301B Ln (2)/k 7702 s 128 min 2.1 hrs
CC1=CC2OOC1C(=O)N2CCC(C)C (stereo not drawn) [ENDOPEROXIDE 301D]	Half Life ENDOPEROXIDE 301D Ln (2)/k 11552 s 193 min 3.2 hrs
CC1=CC2OOC1N(CCC(C)C)C2=O (stereo not drawn) [ENDOPEROXIDE 301C]	Half Life ENDOPEROXIDE 301C Ln (2)/k 6931 s 116 min 1.9 hrs
COC(=O)CN1C(=O)C2(C)C=CC1OO2 (stereo not drawn) [ENDOPEROXIDE 201B]	Half Life ENDOPEROXIDE 201B Ln (2)/k 34657 s 578 min 9.6 hrs
COC(=O)CN1C(=O)C2C=CC1(C)OO2 (stereo not drawn) [ENDOPEROXIDE 201E]	Half Life ENDOPEROXIDE 201E Ln (2)/k 23105 s 385 min 6.4 hrs
COC(=O)CN1C(=O)C2OOC1C=C2C (stereo not drawn) [ENDOPEROXIDE 201C]	Half Life ENDOPEROXIDE 201C Ln (2)/k 34657 s 578 min 9.6 hrs
COC(=O)CN1C(=O)C2C=C(C)C1OO2 (stereo not drawn) [ENDOPEROXIDE 201D]	Half Life ENDOPEROXIDE 201D Ln (2)/k 34657 s 578 min 9.6 hrs
